Assay results: patent EP4810521A1, “ANTI-EGFR AND -HER3 BISPECIFIC ANTIBODY-DRUG CONJUGATE AND USE THEREOF” (priority 2023, dated 2025)

What was measured:
[1] = tested on: human breast cancer cells MDA-MB-453; experiment: In vitro cell killing assay (CTG); assay type: cell-based; details: MDA-MB-453, relative to SIB001-DXd
human EGFR = human EGFR (Homo sapiens, UniProt P00533); experiment: ELISA detection of affinity; assay type: binding; details: relative to SIB001-DXd
[2] = tested on: H508 tumor-bearing mouse model; experiment: Anti-tumor effect in H508 tumor-bearing mouse model; assay type: in vivo, BALB/c NUDE mice; details: H508, 10 mg/kg QWx2 intraperitoneal injection, day 55
Experimental: (§1) The mice were domesticated for 3 days after arrival, and then the study began.
Measurement of tumor volume: the maximum long axis (L) and maximum wide axis (W) of the tumor were measured using a vernier caliper, and the tumor volume was calculated as follows: V=L×W^2/2. Body weight was measured using an electronic balance. Table 1. Experimental design

[3] = tested on: NUGC-4 tumor-bearing mouse model; experiment: Anti-tumor effect in NUGC-4 tumor-bearing mouse model; assay type: in vivo, BALB/c-NUDE mice; details: NUGC-4, 10 mg/kg single dose intraperitoneal injection, day 32
Source text: In the present experiment, the BALB/c NUDE mice inoculated with NUGC-4 cells were used for determining the anti-tumor effect of the EGFR/HER3-ADCs.
The female BALB/c-NUDE mice were purchased from Beijing Vital River Laboratory Animal Technology Co., Ltd, with the grade of SPF, the quality control department is Beijing Vital River Laboratory Animal Technology Co., Ltd, and the certificate number was NO.110011230103807533. The mice were domesticated for 3 days after arrival, and then the study began.
NUGC-4 cells were purchased from NIBIOHN (CAT #: JCRB0834) and routinely subcultured in strict accordance with the instructions for subsequent in vivo experiments. The cells were collected by centrifugation, resuspended in sterile PBS and adjusted to a cell density of 20×10^6 cells/ml. […]
Tumor volume of each mouse was measured 13 days after tumor cell inoculation, the mice with tumor volumes about 200 mm^3 were selected and grouped on average according to their tumor volume (7 mice per group). […] Administrations were conducted on day 13 after inoculation respectively, and the tumor volume and body weight of mice were monitored twice a week. […] Measurement of tumor volume: the maximum long axis (L) and maximum wide axis (W) of the tumor were measured using a vernier caliper, and the tumor volume was calculated as follows: V=L×W^2/2. Body weight was measured using an electronic balance. […]

[4] = tested on: SW620 tumor-bearing mouse model; experiment: Anti-tumor effect in SW620 tumor-bearing mouse model; assay type: in vivo, BALB/c-NUDE mice; details: SW620, 10 mg/kg QWx3 intraperitoneal injection, day 42
Experimental: as §1
Measurement of tumor volume: the maximum long axis (L) and maximum wide axis (W) of the tumor were measured using a vernier caliper, and the tumor volume was calculated as follows: V=L×W^2/2. Body weight was measured using an electronic balance. Table 5. Experimental design

[5] = tested on: ASPC1 tumor-bearing mouse model; experiment: Anti-tumor effect in ASPC1 tumor-bearing mouse model; assay type: in vivo, BALB/c-NUDE mice; details: ASPC1, 10 mg/kg QWx3 intraperitoneal injection, day 28
Experimental: Measurement of tumor volume: the maximum long axis (L) and maximum wide axis (W) of the tumor were measured using a vernier caliper, and the tumor volume was calculated as follows: V=L×W^2/2. Body weight was measured using an electronic balance. Table 7. Experimental design

[6] = tested on: NCI-H1568 tumor-bearing mouse model; experiment: Anti-tumor effect in NCI-H1568 tumor-bearing mouse model; assay type: in vivo, BALB/c-NUDE mice; details: NCI-H1568, 10 mg/kg QWx3 intraperitoneal injection, day 30
Experimental: as §1
Measurement of tumor volume: the maximum long axis (L) and maximum wide axis (W) of the tumor were measured using a vernier caliper, and the tumor volume was calculated as follows: V=L×W^2/2. Body weight was measured using an electronic balance. […] Experimental design

B1: Duligo-LC1-NT3 (conjugate)
heavy: EVQLVESGGGLVQPGGSLRLSCAASGFTLSGDWIHWVRQAPGKGLEWVGEISAAGGYTDYADSVKGRFTISADTSKNTAYLQMNSLRAEDTAVYYCARESRVSFEAAMDYWGQGTLVTVSSASTKGPSVFPLAPSSKSTSGGTAALGCLVKDYFPEPVTVSWNSGALTSGVHTFPAVLQSSGLYSLSSVVTVPSSSLGTQTYICNVNHKPSNTKVDKKV[human IgG1 Fc with changes not shown]
light: DIQMTQSPSSLSASVGDRVTITCRASQNIATDVAWYQQKPGKAPKLLIYSASFLYSGVPSRFSGSGSGTDFTLTISSLQPEDFATYYCQQSEPEPYTFGQGTKVEIKGQPKAAPSVTLFPPSSEELQANKATLVCLISDFYPGAVTVAWKADSSPVKAGVCTTTPSCQSNNKYAASSYLSLTPEQWKSHRSYSCQVTHEGSTVEKTVAPTECS
reduction in IC50 [1]: approximately 250 fold
decrease in Kd (human EGFR): approximately 2.5 fold
TGI [2]: 147%
Tumor volume [2]: 44 mm^3
TGI [3]: 95%
Tumor volume [3]: 220 mm^3
TGI [4]: 100%
Tumor volume [4]: 220 mm^3
TGI [5]: 75%
Tumor volume [5]: 314 mm^3
TGI [6]: 81%
Tumor volume [6]: 332 mm^3
